In the RNAGym collection of RNA variant scans (doi:10.1093/nar/gkz1192) one finds self-cleavage data, which are given here for 34 variants.

The source gives no read counts; variants with many changes may rest on few reads.

Sequences and labels used below:
B1: CPEB3 Ribozyme (parent)
chain: UAACAGGGGGCCACAGCAGAAGCGUUCACGUCGCAGCCCCUGUCAGAUUCUGGUGAAUCUGCGAAUUCUGCUGUAUAUCUC

Variants of B1 are the subject of the data set. As to the kind of experiment: self-cleavage, relative activity (ratio to wild type); higher = more cleavage; in vitro, sequencing. The gist of the method: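 Barcoded CPEB3 ribozyme mutants, produced by rounds of error-prone PCR, self-cleaved while being transcribed with T7 RNA polymerase for 5 hours at 37°C and during a subsequent 15 min DNase I step before EDTA was added. Sequencing of template-switched cDNA on Illumina gave cleaved and total reads, and DNA sequencing assigned barcodes to variants. Each variant's relative activity is its cleaved/total read fraction divided by the unmutated ribozyme's fraction, averaged across three batches. A variant needed a minimum of 5 reads.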
Take UAACAGGGGGCCCCAGCAGAAGCGUUCACGCCGCAGCCCCUGUCAGAUUCUGGUGAAUCUGCGGAUCCUGCUGUAUAUCUC: the self-cleavage was 0.1. Then UAACAGGGGGCCCCAGCAGAAGCGUUCACGUCGCAGCCCCAGCCAGAUUCUGGUGAAUCUGCGAAUUCUGCUGUAUGUCUC, with 0.15.

Regarding UAACAGGGGGCCCCAGCAGAAGCGUUCACGUCGCAGCCCCUGUCGGAUUCUGGUGAAUCUGCGAGUUCUGCUGUGUAUCUC, the self-cleavage amounted to 0.34. On to UAACAGGGGGCCCCAGCAGAAGCGUUCACGUCGCAGCCCCUGUCAGAUUCUGGUGAAUCUGCGGAUUCCGCUGUAUACCUC, for which the self-cleavage amounted to 0.16. Next, UAACAGGGGGCCCCAGUAGAAGCGCUCACGUCGCAGCCCCUGUCAGAUUCUGGUGAAUCUGCGAAUUCUGCUGUAUAUCCC: 0.42. Then UAACAGGGGGCCCCAGCAGAAGCGUUCACGUCGCAGCCCCUGUCAGAUUCUGGUGAGUCUGCGAAUUCAGCUGUAUAUCUC, with 0.53; and UAACAGGGGGCCCCAGCAGAAGCGUUCACGUCGCAGCCCCUGUCGGAAUCCGGUGAAUCUGCGGAUUCUGCAGUAUAUCUC, with 0.14; and UAACAGGGGGCCCCAGCAGAAGCGUUCGCGUCGCAGCCUCUGUCAGAUUCUGGUGAAUCUGCGAAUUCUGCUGUAAAUCCC, with 0.37. Next, UAACAGGGGGCCCCAGCAGAAGCGUUCACGCCGCAGCCCCUGUCAGAUUCUGGUGGAUCUGCGAGUUCUGCUAUAUAUCUC: 0.23; UAACAGGGGGCCCCAGCAGAAGCGUUCACGUCACAGCCCCUGUCUGAUUCUGGUGAAUCUGCGAAUCCUGCUGUAAAUCUC: 0.08.

Regarding UAACAGGGGGCCCCAGCAGAAGCGUUCACGUCGCUGCCCCUGUCAGAUUCUGGUGAAUCUGCGACUUCUGCUGAAUAUCUC, the self-cleavage amounted to 0.18. Then UAACAGGGGGCCCCAGCAGAAGCGUUCUCGUCGCGGCCCCCGUCAGAUUCUGGAGAAUCCGCGAAUUCUGCUGUAUAUCUC, with 0.57. Next, UAACAGGGGGCCCCAGCAGAAGCGUCCACGUCGCAGCCUAUGUCAGAUUCUGGUGAAUCUGCGGAUUCUGCCGUAUAUCUC: 0.16; UAACAGGGGGCCCCAGCAGAGGCGUUCACGUCGCAGCCCCUGUCAGAUUCUGGUGAGUCUGCGUAUUCUGCUGUACAUCUC: 0.12.

As for UAACAGGGGGCCCCAGCAGAAGCGUUCACGUCGCAGCCCUUGUCAGAUGCUGGUGAGUCUGCGAAUUCUGCUGUAUAUCUC, the self-cleavage is 0.13. As to UAACAGGGGGCCCCAGCAGAAGCGUUCACGUCGCAGCCACUGUCAGAUUCUGGUGAAUCUGCGAAUCCUGCUGUAUAUCUC, the self-cleavage was found to be 0.03.

With UAACAGGGGGCCCCAGCAGAAGCGUUCACGUCGCAGCCACUGUCAGAUUCUGGUGAAUCUGCGAAUCCUGCUGAAUAUCUC, the self-cleavage amounted to 0.14.

Regarding UAACAGGGGGCCCCAGCAGAAGCGUUCACGUCGCGGCCCCUGUCAGAUUCUGGCGAAUCUGCGAAUUCUGCUGUAUAUCUC, the self-cleavage came to 1.28. Next, UAACAGGGGGCCCCAGCAGAAGCGUUCACGUCGCUGCCCCUGUCAGGUUCUGGUGAAUCUGCGAAUUCUGCUGUAUAUCCC: 0.97. Next, UAACAGGGGGCCCCAGCAGAAGCGUUCACGUCGCAGCCCCCGUCAGAUUCUGGUGAAUCUGCGAAUUCUGAUGUAUAUCUC: 0.11; UAACAGGGGGCCCCAGCAGAAGCGUUCACGUCGCAGCCCCUGUCUGAUUCUGGUGAAUCUGCGAAUCCUGCUGUAUAUCAC: 0.13; UAACAGGGGGCCCCAGCAGAAGCGUUCACGUCGCAGCCCCCGUCAGAUUCUGGUGUAUCUGCGAAUUCCGCUGUAUAUCUC: 0.3. Next, UAACAGGGGGCCCCAGCAGAGGCGUUCACGUCGCAGCCCCAGUCAGAUUCUGGUGAAUCUGCGAGUUCUGCUGUAUAUCUC: 0.15. For UAACAGGGGGCCCCAGCAGAAGCGUUCACGUCGCAGCCCCUGUCUGAUUCAGGUGAGUCUGCGAAUUCUGCUGUAUAUCUC, the self-cleavage is 0.16.

Consider UAACAGGGGGCCCCAGCAGAAGCGUUCACGCCGCAGCCCCCGCCAGAUUCUGGUGAAUCUGCGAAUUCUGCUGUAUAUCUC, for which the self-cleavage is 0.08. As to UAACAGGGGGCCCCAGCAGAAGCGUUCACGUCGCAGCCCCCGUUAGAUUCUGGUGAAUCAGCGAAUUCUGCUGUAUAUCUC, the self-cleavage is 0.17. For UAACAGGGGGCCCCAGCAGAAGCGUUCACGUCGCUGCCCCCGUCAGAUUCUGGUGAAUCAGCGAAUUCUGCUGUAUAUCUC, the self-cleavage was found to be 0.26. Next, UAACAGGGGGCCCCAGCAGAGGCGUUCACGUCGCAGCCCCCGUCAGAUCCUGGUGGAUCUGCGAAUUCCGCUGUAUAACUC: 0.19; UAACAGGGGGCCCCAGCAGAAGCGUUCACGUCUCAGCCCCGGUCAGAUUCUGGUGAAUCCGCGAAUUCUGCCGUAUAUCUC: 0.08; UAACAGGGGGCCCCAGCAGAAGCAUUCACGUCGCAGCCCCCGUCAGAUUCUGGUGUAUCUGCGAAUUCUGCUGUAUUCCUC: 0.13. Next, UAACAGGGGGCCCCAGCAGAAGCGUUCACGUCGCAGCCCCUGUCGGAUUCAGGAGGAUCUGCGAAUUCUGCUGUAUAUCUC: 0.3; UAACAGGGGGCCCCAGCAGGAGCGUUCACGUCGCAGCCCCUGUCGGAUUCUGGUGAAUCUGCGAAUUCUGCUGUAUAUCUC: 0.51; UAACAGGGGGCCCCAGCAGAAGCGCUCACGUCGCAGCCCCUGUCCGACUCUGGUGAAUCUGCGAAUUCAGCUGUACAUCUC: 0.2.

Turning to UAACAGGGGGCCCCAGCAGAAGCGGUCACGUCGCAGCCCCUGUCAGAUUCUGGUGAAUCUGCGAAUUCCGCUGUAUAACUC, the self-cleavage stood at 0.17.
